# Reference: the supplement of paper PMC8728848
# Some of the results follow.
# B1: FliC (Pseudomonas aeruginosa), P72151 (protein)
# chain: MALTVNTNIASLNTQRNLNASSNDLNTSLQRLTTGYRINSAKDDAAGLQISNRLSNQISGLNVATRNANDGISLAQTAEGALQQSTNILQRIRDLALQSANGSNSDADRAALQKEVAAQQAELTRISDTTTFGGRKLLDGSFGTTSFQVGSNAYETIDISLQNASASAIGSYQVGSNGAGTVASVAGTATASGIASGTVNLVGGGQVKNIAIAAGDSAKAIAEKMDGAIPNLSARARTVFTADVSGVTGGSLNFDVTVGSNTVSLAGVTSTQDLADQLNSNSSKLGITASINDKGVLTITSATGENVKFGAQTGTATAGQVAVKVQGSDGKFEAAAKNVVAAGTAATTTIVTGYVQLNSPTAYSVSGTGTQASQVFGNASAAQKSSVASVDISTADGAQNAIAVVDNALAAIDAQRADLGAVQNRFKNTIDNLTNISENATNARSRIKDTDFAAETAALSKNQVLQQAGTAILAQANQLPQAVLSLLR
# Key:
# Assay in all cases: glycan array binding signal (z-score within array); higher = stronger binding
# Settings in all cases: glycan notation: IUPAC condensed, linker removed
# [1] = molecular target: Gal(b1-4)GlcNAc(b1-2)Man(a1-6)[Man(a1-3)]Man(b1-4)GlcNAc(b1-4)GlcNAc
# Outline: (§1)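 Arrays were curated from the Consortium for Functional Glycomics database, 3228 in total, and kept only where the protein sequence was available. Binding is expressed as a within-array Z-score. This score was averaged across arrays of the same protein sequence at different concentrations or buffers and across linkers, and negative values can be read as non-binding.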
# [2] = molecular target: Gal(b1-4)GlcNAc(b1-2)[Gal(b1-4)GlcNAc(b1-4)]Man(a1-3)[Gal(b1-4)GlcNAc(b1-2)Man(a1-6)]Man(b1-4)GlcNAc(b1-4)GlcNAc
# Outline: as §1
# [3] = molecular target: Gal(b1-4)GlcNAc(b1-2)[Gal(b1-4)GlcNAc(b1-4)]Man(a1-3)[Gal(b1-4)GlcNAc(b1-2)[Gal(b1-4)GlcNAc(b1-6)]Man(a1-6)]Man(b1-4)GlcNAc(b1-4)GlcNAc
# Outline: as §1
# [4] = molecular target: Gal(b1-4)GlcNAc(b1-2)[Gal(b1-4)GlcNAc(b1-4)]Man(a1-3)[GlcNAc(b1-4)][Gal(b1-4)GlcNAc(b1-2)Man(a1-6)]Man(b1-4)GlcNAc(b1-4)GlcNAc
# Outline: as §1
# [5] = molecular target: Gal(b1-4)GlcNAc(b1-2)[Gal(b1-4)GlcNAc(b1-4)]Man(a1-3)[GlcNAc(b1-4)][Gal(b1-4)GlcNAc(b1-2)[Gal(b1-4)GlcNAc(b1-6)]Man(a1-6)]Man(b1-4)GlcNAc(b1-4)GlcNAc
# Outline: as §1
# [6] = molecular target: Gal(b1-4)GlcNAc(b1-2)[Gal(b1-4)GlcNAc(b1-6)]Man(a1-6)[Gal(b1-4)GlcNAc(b1-2)Man(a1-3)]Man(b1-4)GlcNAc(b1-4)GlcNAc
# Outline: as §1
# [7] = molecular target: Gal(b1-4)GlcNAc(b1-2)[Gal(b1-4)GlcNAc(b1-6)]Man(a1-6)[Gal(b1-4)GlcNAc(b1-2)Man(a1-3)]Man(b1-4)GlcNAc(b1-4)[Fuc(a1-6)]GlcNAc
# Outline: as §1
# [8] = molecular target: Gal(b1-4)GlcNAc(b1-2)[Gal(b1-4)GlcNAc(b1-6)]Man(a1-6)[GlcNAc(b1-4)][Gal(b1-4)GlcNAc(b1-2)Man(a1-3)]Man(b1-4)GlcNAc(b1-4)GlcNAc
# Outline: as §1
# [9] = molecular target: Gal(b1-4)GlcNAc(b1-2)[Gal(b1-4)GlcNAc(b1-6)]Man(a1-6)[GlcNAc(b1-4)][Gal(b1-4)GlcNAc(b1-2)[Gal(b1-4)GlcNAc(b1-4)]Man(a1-3)]Man(b1-4)GlcNAc(b1-4)[Fuc(a1-6)]GlcNAc
# Outline: as §1
# [10] = molecular target: Gal(b1-4)GlcNAc(b1-3)Gal(b1-3)GalNAc
# Outline: as §1
# [11] = molecular target: Gal(b1-4)GlcNAc(b1-3)Gal(b1-3)GlcNAc
# Outline: as §1
# [12] = molecular target: Gal(b1-4)GlcNAc(b1-3)Gal(b1-4)Glc
# Outline: as §1
# [13] = molecular target: Gal(b1-4)GlcNAc(b1-3)Gal(b1-4)GlcNAc
# Outline: as §1
# [14] = molecular target: Gal(b1-4)GlcNAc(b1-3)Gal(b1-4)GlcNAc(b1-2)Man(a1-3)[Gal(b1-4)GlcNAc(b1-3)Gal(b1-4)GlcNAc(b1-2)Man(a1-6)]Man(b1-4)GlcNAc(b1-4)GlcNAc
# Outline: as §1
# [15] = molecular target: Gal(b1-4)GlcNAc(b1-3)Gal(b1-4)GlcNAc(b1-2)Man(a1-3)[Gal(b1-4)GlcNAc(b1-3)Gal(b1-4)GlcNAc(b1-2)Man(a1-6)]Man(b1-4)GlcNAc(b1-4)[Fuc(a1-6)]GlcNAc
# Outline: as §1
# [16] = molecular target: Gal(b1-4)GlcNAc(b1-3)Gal(b1-4)GlcNAc(b1-2)[Gal(b1-4)GlcNAc(b1-3)Gal(b1-4)GlcNAc(b1-6)]Man(a1-6)[Gal(b1-4)GlcNAc(b1-3)Gal(b1-4)GlcNAc(b1-2)Man(a1-3)]Man(b1-4)GlcNAc(b1-4)GlcNAc
# Outline: as §1
# [17] = molecular target: Gal(b1-4)GlcNAc(b1-3)Gal(b1-4)GlcNAc(b1-2)[Gal(b1-4)GlcNAc(b1-3)Gal(b1-4)GlcNAc(b1-6)]Man(a1-6)[Gal(b1-4)GlcNAc(b1-3)Gal(b1-4)GlcNAc(b1-2)Man(a1-3)]Man(b1-4)GlcNAc(b1-4)[Fuc(a1-6)]GlcNAc
# Outline: as §1
# [18] = molecular target: Gal(b1-4)GlcNAc(b1-3)Gal(b1-4)GlcNAc(b1-3)Gal(b1-4)GlcNAc
# Outline: as §1
binder,measurement,setting,value
B1,glycan array binding signal (z-score),[1],1.05
same,glycan array binding signal (z-score),[2],-0.105
same,glycan array binding signal (z-score),[3],-0.194
same,glycan array binding signal (z-score),[4],-0.178
same,glycan array binding signal (z-score),[5],0.363
same,glycan array binding signal (z-score),[6],-0.022
same,glycan array binding signal (z-score),[7],1.27
same,glycan array binding signal (z-score),[8],-0.226
same,glycan array binding signal (z-score),[9],0.581
same,glycan array binding signal (z-score),[10],-0.256
same,glycan array binding signal (z-score),[11],-0.142
same,glycan array binding signal (z-score),[12],-0.192
same,glycan array binding signal (z-score),[13],-0.122
same,glycan array binding signal (z-score),[14],-0.105
same,glycan array binding signal (z-score),[15],-0.16
same,glycan array binding signal (z-score),[16],-0.183
same,glycan array binding signal (z-score),[17],0.127
same,glycan array binding signal (z-score),[18],-0.189
